We go through 45 compounds from publication PMC4336329 (PLoS ONE, 2015).

About 14,000 (4.5%) of roughly 310,000 compounds showed an effect of 50% or more. Effects have a minus sign here. Some of the results follow.
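Note: peak tail current of the secondary pulse compared with the same well before compound.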

The target in the assay is human ether-à-go-go-related gene (hERG) potassium channel (human, UniProt Q12809). The assay is described as follows: primary screen, population patch clamp on CHO cells stably expressing hERG.
Sequence of human ether-à-go-go-related gene (hERG) potassium channel (Q12809 whole entry, looked up): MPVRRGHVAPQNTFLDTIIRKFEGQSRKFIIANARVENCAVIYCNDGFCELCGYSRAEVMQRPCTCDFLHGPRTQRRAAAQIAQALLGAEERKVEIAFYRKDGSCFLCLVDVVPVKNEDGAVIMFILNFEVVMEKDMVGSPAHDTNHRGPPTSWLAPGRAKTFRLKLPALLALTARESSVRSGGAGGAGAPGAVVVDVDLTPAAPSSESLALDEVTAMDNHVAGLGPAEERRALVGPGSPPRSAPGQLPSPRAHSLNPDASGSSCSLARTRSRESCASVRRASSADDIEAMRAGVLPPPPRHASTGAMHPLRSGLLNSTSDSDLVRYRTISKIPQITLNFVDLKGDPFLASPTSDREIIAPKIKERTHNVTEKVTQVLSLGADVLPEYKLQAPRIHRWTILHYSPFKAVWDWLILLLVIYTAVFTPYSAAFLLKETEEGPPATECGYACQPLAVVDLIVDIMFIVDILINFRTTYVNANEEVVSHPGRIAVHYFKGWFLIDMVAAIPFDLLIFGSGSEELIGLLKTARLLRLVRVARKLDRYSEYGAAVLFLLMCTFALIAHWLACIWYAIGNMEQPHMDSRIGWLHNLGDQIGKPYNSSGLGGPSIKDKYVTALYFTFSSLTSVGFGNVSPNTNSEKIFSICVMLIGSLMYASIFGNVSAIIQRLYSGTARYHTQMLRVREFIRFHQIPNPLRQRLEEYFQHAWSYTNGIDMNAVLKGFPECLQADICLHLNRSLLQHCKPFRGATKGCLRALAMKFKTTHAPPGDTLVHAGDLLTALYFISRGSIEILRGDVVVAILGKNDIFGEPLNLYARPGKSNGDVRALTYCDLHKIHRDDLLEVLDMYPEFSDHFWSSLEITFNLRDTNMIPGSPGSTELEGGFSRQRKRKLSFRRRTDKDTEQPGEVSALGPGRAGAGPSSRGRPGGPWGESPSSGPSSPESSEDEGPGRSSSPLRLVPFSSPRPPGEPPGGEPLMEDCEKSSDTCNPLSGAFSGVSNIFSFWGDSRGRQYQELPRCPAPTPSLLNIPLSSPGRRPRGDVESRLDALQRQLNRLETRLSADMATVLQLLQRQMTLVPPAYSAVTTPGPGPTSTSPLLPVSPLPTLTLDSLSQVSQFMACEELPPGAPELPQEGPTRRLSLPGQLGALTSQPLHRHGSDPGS
Consider `CNc1nnc(SCC(=O)c2cc(C)n(C3CC3)c2C)s1`, for which the “hERG current change (%, negative = inhibition) at 10uM” value worked out at 4.59%.

With `O=C(Cc1ccccc1)NN1C(=O)/C(=C/c2ccc(C(=O)O)cc2)SC1=S`, the “hERG current change (%, negative = inhibition) at 10uM” value was determined as 17.2%.

Turning to `Cc1cc(C)c(S(=O)(=O)N2CCOCC2)c(C)c1N(C)S(=O)(=O)c1ccccc1`, the “hERG current change (%, negative = inhibition) at 10uM” value was -26.9%.

Take `c1ccc(-c2cncnc2)cc1`: the “hERG current change (%, negative = inhibition) at 10uM” value turned out to be 6.07%.

With `CCC(C)c1nc2ccsc2c(N2CCOC2=O)c1-c1ccccc1` (stereo not drawn), the “hERG current change (%, negative = inhibition) at 10uM” value is -20.1%. Then `CCCCC(=O)N1CC(=O)Nc2ccc(F)cc2C1c1ccccc1` (stereo not drawn), with 0.246%; and `COC(=O)c1c(-c2ccc(C(C)(C)C)cc2)csc1NC(=O)C1C2CCC(O2)C1C(=O)O` (stereo not drawn), with 4.24%. As to `Cc1sc2ncnc(SCC(=O)NC3CC3)c2c1C`, the “hERG current change (%, negative = inhibition) at 10uM” value is on record as -15.2%. To `NC(=S)N/N=C/c1ccc(-c2cc(Cl)cc(Cl)c2)o1` belongs 3.99%. `COc1ccc(-c2nn(-c3ccccc3)cc2/C=C(\C#N)C(N)=O)cc1[N+](=O)[O-]`: the “hERG current change (%, negative = inhibition) at 10uM” value is on record as 50.5%.

`CC(=O)c1ccc(N2Cc3ccccc3/C2=N\C(=O)Nc2ccc(Cl)cc2)cc1`: the “hERG current change (%, negative = inhibition) at 10uM” value is recorded as -7.23%. Regarding `Cc1cccc(-n2c(C)cc(/C=N/NC(=O)c3cccc([N+](=O)[O-])c3C)c2C)c1`, the “hERG current change (%, negative = inhibition) at 10uM” value worked out at 16.8%.

Regarding `CCOC(=O)CC(=O)CSc1nc2ccccc2c(=O)n1-c1ccc(C(=O)N2CCOCC2)cc1`, the “hERG current change (%, negative = inhibition) at 10uM” value was found to be 11.2%. On to `COc1cc(C(=S)N2CCCC2)cc(OC)c1O`, for which the “hERG current change (%, negative = inhibition) at 10uM” value is given as 8.88%. Then `c1ccc(CNCC2COc3ccccc3O2)cc1` (stereo not drawn), with 8.17%; and `Cc1ccc2cc(C#N)c(SCC(=O)NCc3ccco3)nc2c1`, with 9.57%; and `N/C(=N\OC(=O)c1ccc([N+](=O)[O-])cc1)c1cccnc1`, with -10.7%. To `Cc1ccc(Oc2ccccc2/C=C/C(=O)O)cc1` belongs 14.6%. As to `C=CCCCCCCCCC(=O)NNC1=CC(=O)CC(C)(C)C1`, the “hERG current change (%, negative = inhibition) at 10uM” value is listed as -11%. As to `CCn1c(=O)cc(SCC(=O)NCCCN2CCC(C)CC2)c2ccccc21`, the “hERG current change (%, negative = inhibition) at 10uM” value is given as -13%. In the case of `O=C(CN1C(=O)/C(=C\c2ccccc2Br)Oc2ccccc21)NCCCN1CCOCC1`, the “hERG current change (%, negative = inhibition) at 10uM” value is -17.8%. To `CCOC(=O)c1cc(S(=O)(=O)N2CCOCC2)cn1C` belongs 18.5%; to `Cl.c1ccc2c(c1)oc1c(NCC3CCCO3)ncnc12` (stereo not drawn), -6.22%; to `O=C(CNC(=O)c1ccco1)NCC(=O)OCc1ccc(F)cc1`, 13.6%. To `C/C(=C\c1ccccc1)C1NC(=O)c2c(sc3c2CCCC3)N1` (stereo not drawn) belongs 7.46%; to `COc1cc(/C=C(\C#N)c2nc3ccccc3[nH]2)ccc1OC(=O)c1ccco1`, 0.943%. Take `COc1cccc(CNC(=O)CN2C(=O)COc3ccc(S(=O)(=O)N4CCOCC4)cc32)c1`: the “hERG current change (%, negative = inhibition) at 10uM” value worked out at 1.23%. Regarding `CCN1CCN(C(=O)C2CCN(c3nnc(-n4c(C)ccc4C)s3)CC2)CC1`, the “hERG current change (%, negative = inhibition) at 10uM” value is reported as -13%. Turning to `CCC(C)NC(=O)CSC1=Nc2ccccc2C2=NC(CC(=O)NCc3ccccc3)C(=O)N12` (stereo not drawn), the “hERG current change (%, negative = inhibition) at 10uM” value is -0.668%. To `O=C(NC1CCCC1)C1=COCCO1` belongs 5.2%; to `CCC(COC)NC(=O)CCc1nnc(Cc2c[nH]c3ccccc23)o1` (stereo not drawn), 29.4%. Consider `c1ccc(N(c2ccccc2)c2nc(N3CCCC3)nc(-n3ccnc3)n2)cc1`, for which the “hERG current change (%, negative = inhibition) at 10uM” value is listed as -6.6%. Take `O=C(CSc1nnc(-c2ccncc2)n1CC1CCCO1)Nc1cccc(O)c1` (stereo not drawn): the “hERG current change (%, negative = inhibition) at 10uM” value was 2.38%. Regarding `CC1=NN(c2nc(-c3ccc(Cl)cc3)cs2)C(=O)C1`, the “hERG current change (%, negative = inhibition) at 10uM” value was found to be 13.8%. Consider `O=C(Nc1nnc(SCc2ccccc2)s1)c1ccco1`, for which the “hERG current change (%, negative = inhibition) at 10uM” value is 3.26%. Take `Cc1ccc(S(=O)(=O)/N=C(/Nc2ccc3[nH]c(=O)[nH]c3c2)c2ccccc2)cc1`: the “hERG current change (%, negative = inhibition) at 10uM” value turned out to be 7.3%. With `COc1ccc(-c2cn3ccccc3n2)cc1`, the “hERG current change (%, negative = inhibition) at 10uM” value is 11.9%.

On to `O=C(O)CCCc1nc(-c2ccccc2)no1`, for which the “hERG current change (%, negative = inhibition) at 10uM” value is reported as -2.35%. As to `Cc1cc([N+](=O)[O-])cc(C)c1OCC(=O)N/N=C/c1ccc(OC(=O)c2ccccc2)cc1`, the “hERG current change (%, negative = inhibition) at 10uM” value is -2.89%. For `COc1cc2c(cc1OC)C(C)N(C(=O)Cc1ccc(C(F)(F)F)cc1)CC2` (stereo not drawn), the “hERG current change (%, negative = inhibition) at 10uM” value is recorded as -21.8%. As to `NC(=O)CSc1nc(-c2ccccc2Cl)ns1`, the “hERG current change (%, negative = inhibition) at 10uM” value is recorded as -3.02%. `CC(/C=N/NC(=O)c1nnn(-c2nonc2N)c1CN(C)C)=C\c1ccco1`: the “hERG current change (%, negative = inhibition) at 10uM” value was -44.1%. Regarding `c1ccc(CN2CCN(c3ncnc4c3[nH]c3ccccc34)CC2)cc1`, the “hERG current change (%, negative = inhibition) at 10uM” value was -62.5%. Turning to `CN(C)c1ccc(NC(=O)CSc2nc3ccccc3c(=O)n2C2CCCCC2)cc1`, the “hERG current change (%, negative = inhibition) at 10uM” value is -20.8%.

`CC(=O)N1CCCc2cc(S(=O)(=O)N3CCCC(C(=O)Nc4cccc(C)c4)C3)ccc21` (stereo not drawn): the “hERG current change (%, negative = inhibition) at 10uM” value is given as -10.4%.
